Data from the supplement of paper PMC3334620.
In all, about 33,000 sequences were measured (“E-score (-0.5 to 0.5)”: median about -0.01, highest 2% from about 0.26 on). This is one part of the list.

Molecular target: Ste12 (UniProt P13574)
Assay: PBM E-score (8-mer binding enrichment) (E-score (-0.5 to 0.5)); higher = stronger / more preferred TF binding; most listed sequences are background and not binding sites
Settings: protein concentration: 200 nM; construct: GST-DNA-binding domain
Summary of the method: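 Each ungapped eight-base word and its reverse complement, pooled, received an E-score from the Universal PBM Analysis Suite. Underlying scans, normalised with masliner, recorded fluorescent anti-GST bound to GST-tagged yeast transcription factors. These were applied at about 100-200 nM to universal all-10-mer Agilent arrays double-stranded by primer extension.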

Sequence | PBM E-score
AAGACTTC | -0.141
GACCATGC | -0.139
GTAATGGA | -0.00779
GCCTGACC | -0.161
AGGTGAGC | 0.03
ACCCCCTG | -0.291
AGTGGTGC | -0.172
ACCGTGGA | 0.00515
CAGTAAGA | 0.12
CCGACGAA | 0.225
ACTCACGG | 0.0185
GCCTAGGC | 0.123
ACGTCTAG | -0.124
CCTGGCTC | -0.105
AGTGACCG | -0.0864
CGTGGCAG | -0.0888
GTTAGGGA | -0.0714
CGCGTGGA | -0.217
ACCACGCG | 0.0389
ATAGTGGG | -0.0619
ACTAAACA | 0.208
CGTCATTA | -0.0247
AACCAACA | 0.0317
ATCATCCC | -0.0439
CGTTTATC | 0.158

Sequence | PBM E-score
GTCAACCA | -0.0406
ATGACGAC | -0.0688
GGGGTCAA | -0.00447
AAACGAGA | 0.122
AATGCTTA | -0.0299
CGCCCGCA | 0.0259
CACGCTAA | -0.0383
AGTGCCTG | -0.0408
AGCATGCC | -0.114
GGAAGTCA | 0.0608
GCCCCCTA | -0.322
AGATCGAG | 0.0012
GCTGCCCC | -0.00836
AGGCATGG | -0.0351
ACCCATAA | 0.0672
CAGTTAAC | 0.0481
CGGACTGC | -0.162
AATGCATG | 0.084
ATTGAGCG | 0.0537
CGTAAATA | 0.0849
ATTTTCCG | 0.318
ATTCGTTA | 0.199
AATCTTGA | -0.022
GTCGATCA | -0.0573
GGTTTCAA | 0.416

Sequence | PBM E-score
GCCCGGTA | -0.128
ACTTTCTC | 0.0795
CCAATCGA | 0.067
GATACTTA | -0.0466
AACATAAG | 0.289
CACTCAGG | -0.0356
AACCCACC | 0.213
GACACCGA | 0.0306
AGCAGCTA | -0.221
ACTGTTTA | 0.165
AGTCTCAG | 0.0505
ATCTACTA | 0.152
AAGCCATG | -0.22
ATGTTAAC | 0.0699
CTTCCAAG | -0.112
GTTGCATA | -0.00189
ATCTCGCG | 0.0408
GAGCACAC | -0.265
CAACTGGG | -0.103
GATCCCCA | 0.0544
CGAATCTA | 0.0242
TGGCAGAA | 0.164
CCCTGTTC | -0.243
AAACTCCC | 0.00124
AAGATTAG | 0.0478

Sequence | PBM E-score
CTTCAACC | 0.0218
GCAGGCCC | -0.0254
ATATGGAC | 0.00562
CCCATTCC | -0.178
ATGAAATA | 0.144
GGGTAGAA | 0.0664
ACCCAACG | 0.237
ATCCATAC | 0.104
GGGAGTAC | -0.12
TGAACTCA | -0.106
GCCCTGAA | 0.0135
AATCGCTA | 0.0223
CCTAAAGC | -0.0262
CAGTTGAC | -0.0391
CCGCGCCA | 0.0646
GCGTTGAA | 0.114
AATAGAAC | 0.00631
CTAGTAGA | 0.129
CACGGCCC | -0.117
CTTGGGAA | 0.00119
AGCGCCCG | -0.15
ACACCGTC | -0.0861
ACGATGCT | -0.0622
AACTAGAA | 0.142
GTCAGGAC | -0.14

Sequence | PBM E-score
CCTAACCC | -0.281
GCCTTAGC | -0.0576
GTGGTCTA | -0.162
GATGTCCC | -0.062
ATTTTCGA | -0.0166
CAATGGTC | 0.0803
CAAATCCG | -0.0471
GAACACAC | -0.0544
CAGCAGGA | 0.0817
AACCGGGA | 0.0767
AAGGGAAG | 0.0343
CTTGGTCC | -0.156
CACAACAG | -0.139
AGAATACG | 0.162
AAAGGTTC | -0.154
TCAGTGCA | 0.0371
AATTAACA | 0.152
TGGCGACA | -0.155
TAAAACTA | 0.136
ATCCGGGG | 0.0794
ATAATGGC | -0.00614
GTCGAAAA | 0.0735
AATGCTCC | -0.0685
AGCCTGGG | -0.0222
CAACCTAG | 0.133

Sequence | PBM E-score
CAGTCCCA | -0.0439
AGAAGTTC | -0.0361
CTATACGC | -0.0471
CTGCTTCC | -0.0572
GGGGGACC | -0.0664
CGATCTAA | 0.113
AACCCAGT | 0.0131
AAAGCATT | -0.0706
CCATGCAA | 0.25
GCGACTAC | -0.089
ACAACTCC | -0.0227
ACTGGCTG | -0.0806
AAGGTGTA | -0.0652
CACTGCCA | 0.0649
AAATCCAG | 0.0283
GTTCGTAA | 0.0614
GTTGTCCA | -0.0323
AAGTACTC | -0.0263
CAATAGTA | 0.121
AGAATGAT | 0.231
CTTTAGTA | -0.0182
AGCTGTGA | -0.0616
GCGCCGGA | -0.0097
CGGCGATC | -0.0156
CCGGCAGA | -0.115

Sequence | PBM E-score
TCGGTGCA | -0.181
CTCACATA | 0.127
TAGTGGAA | -0.162
TGAAGGCA | -0.018
CATGCATA | 0.04
GCTTAACA | -0.0491
CGGCCCCA | -0.335
ATCGAGCC | -0.0583
GAGTCCTA | -0.179
ATAGGGTA | 0.0604
AACTCCAC | 0.0173
AAGGTCAA | 0.0712
GCAGAGCA | -0.0242
CTTGCGAC | -0.128
ATTTGGAA | 0.157
TAATTCCA | 0.161
CTAGGATC | -0.105
AGATTAGC | -0.161
GTGCAGAA | 0.129
AGAGACAG | -0.0163
GACCAGGC | -0.077
ACGCTTAT | 0.0163
GTCACTTA | 0.133
ATGGGCCG | 0.0379
TTAATTAA | 0.245

Sequence | PBM E-score
GACGCATC | -0.101
CCGCTGTA | 0.198
CGCCCACG | -0.0917
CAATCGCA | 0.13
ACGACTCA | -0.118
GGGAAGTA | 0.0203
TCCCCGAA | -0.0273
GGTCCTAA | 0.125
CGCCTAGA | -0.0727
CATAGGCA | -0.216
CAATGGGA | -0.134
ATGGTATC | 0.0174
GTTATTGA | 0.0312
ATGGTGTC | -0.00249
ACGATTCC | -0.00654
AGTATCTA | 0.0936
CCTTAGGC | -0.192
AGTGTGCG | 0.0476
ATTCGTCA | 0.0529
ACCCTGAC | 0.0373
GGATCTGA | 0.151
GGTGGCTA | -0.232
TCCGCCCA | -0.107
AAATCCCA | 0.0961
CCAACCGC | -0.0325

Sequence | PBM E-score
AAATATGC | -0.0267
GAATGGAC | -0.12
CCGTATTA | 0.0394
TAGGTATA | 0.124
TCCCTTAA | -0.0131
GTTGCAGA | -0.0899
TTCTACAA | 0.202
CCGGGTCC | -0.226
TAATACAA | 0.201
GATTATTA | 0.196
AATTTAGA | 0.0523
AAGATTAT | 0.149
ACAATTAT | 0.212
ATTTGTGG | 0.174
ACCAGACT | -0.151
ACGAAGTG | 0.0265
CCAGTTAC | -0.194
ATCCCAGG | -0.15
CCTAAAAA | 0.124
TGGCAAAA | 0.173
CTCGTTCA | 0.0116
CTTAAATC | 0.105
TCAAGTAA | 0.112
GCGTTCAA | -0.171
ATAAGCCG | 0.0102

Sequence | PBM E-score
AGGTCATC | -0.297
GCCCCAAC | 0.13
CCCGTCGG | 0.0437
GTTCACTA | -0.13
CAATTGCG | 0.0264
AATGTTCC | 0.00954
ACCGCACG | -0.15
ACTCGCAC | -0.114
ATATAGTG | 0.0803
GAAGAGCC | -0.123
AGTCCGTA | -0.00041
CCCCTATC | -0.139
CAGGAGAC | 8e-05
GCATCCTA | -0.112
ACATAGCG | -0.133
CTTTGCAC | -0.0246
AAGAGGTC | -0.173
GCCGTTAA | -0.0341
ACAGCCTA | 0.143
ATCAACTG | -0.112
AAAGAGAT | -0.00574
TACAGATA | 0.0167
AATCCTGC | -0.158
CCACCGAC | 0.0147
AAACGATG | 0.0327

Sequence | PBM E-score
TAGCTGCA | -0.103
ATATGGGC | 0.0247
ACAACGGT | -0.14
ACACGGTA | 0.00668
AACACATA | 0.074
GTGCCTGA | -0.181
TCAACAAA | 0.239
TACACCGA | 0.0249
ATATGCCA | 0.0949
AACCCGGT | -0.124
GAAAAGGC | -0.101
CAAGAGCA | -0.0638
ATCCACCA | -0.0214
CCACGCAA | 0.00422
CTTGCTTA | -0.0912
ACGCGCAC | -0.134
GAAGAGCA | -0.107
CGCCTCCC | 0.0638
GAAGCTCA | -0.175
AATTGGGG | -0.117
AGGCAGCC | 0.0255
AAAACGGG | 0.236
ACTCGAGT | 0.0731
CACCCAGC | -0.0309
GCTCAGAC | 0.00203

Sequence | PBM E-score
AACCCGTT | -0.0712
TAGTTGGA | 0.16
TCGGCTAA | 0.128
AGACGGTA | -0.0164
AGAATGAA | 0.181
AGTTTGAG | 0.172
AGTATGAA | 0.184
AGAAGCGG | -0.163
CCGTGGGC | -0.0927
AGCCAGTC | -0.204
AGACTGCC | -0.0748
CACCACCG | -0.0489
ACTAAGCT | 0.0629
ATGACGAA | 0.0271
CTACCAGC | -0.113
ACTCGGAC | -0.135
CAGAGGGC | -0.164
ACTACAGG | -0.0636
CAATGCTC | -0.0778
ATTGTAAG | 0.0661
CAAACTTG | 0.0449
CGGCACCG | -0.0566
AATGCCGC | 0.101
CACGACTC | -0.162
GAACAACC | 0.00021

Sequence | PBM E-score
AACCCGGG | 0.0825
GAGGGTGA | -0.0363
TAGCTAGA | -0.0709
AAGTACGG | -0.0506
CATAGTAG | 0.0596
CTATGAGC | -0.118
AAGTCCCC | -0.0984
AGGTACCC | -0.148
CTTATAGC | -0.156
CATCCAAC | -0.0817
ATGAGGCA | 0.00856
GACGTTGC | -0.14
ATATGCGC | -0.0144
ATATCATA | 0.0543
ATAGGGGA | -0.0128
GGCCGTGA | 0.0209
GCAGTCGC | 0.0379
CTGCCCTA | -0.202
AAGAATGG | -0.0352
CGATCGTA | 0.0721
AATATTTC | 0.254
AGTTTGCG | 0.122
TAGGAGCA | -0.109
CTAAGCCC | -0.167
GATGTCGA | -0.114

Sequence | PBM E-score
CGAGGGAC | -0.213
CTACCTAG | -0.178
AAGGTAAT | 0.0565
AACTGGCG | 0.0203
GCACGACA | -0.186
TCGAGAGA | -0.0288
ACGGAATC | -0.097
AAAAGTCG | 0.0918
GTGATTAA | 0.13
GATTCTAC | -0.0765
AACTCCAT | -0.173
GCGGTTCC | 0.0504
AAACGCGT | 0.255
CAATCTCA | 0.183
CGGCCGCA | 0.1
AAACCAGT | 0.142
CGAACTCA | -0.0491
GCAGCCAC | 0.0568
ATACTCCA | 0.0877
